Read counts are not given, so values of variants with three or more changes are uncertain.
B1: LINE1-mini (parent)
chain: GGCAGAGCUCAACACAGCGUGGCAAAGUGGCUGUGGCUAGACUGCC

Variants of: B1
Assay: self-cleavage, relative activity (ratio to wild type); higher = more cleavage; in vitro, sequencing; the parent is a self-cleaving ribozyme

| Variant | self-cleavage |
| --- | --- |
| GCCAGAGCUCAACACAGCGUGUCAAAGUGGCUGUGGCUAGUCUCCU | 0.07 |
| GUCAGCGCUCAACACAGCGUGGCCAAGUGGCUGUGGCUAGACUGCC | 0.01 |
| GUCAGAGCUCCACACAGCGUGGAAAAGUGGCUCUGUCUAGACUGCC | 0.01 |
| GCCAGAACUCAACACAGCGUGGCAAACUGGCUGUGGCAAGACUGCC | 0.02 |
| GCCAGAGCACAACACAGCGUGGCAAAGUGGCUGUGACUAGACUGCC | 0.2 |
| GCCAGAGCUCAACACAGCGAGGAAAAGUGGCUGUGGCUAGACUGCC | 0.12 |
| GUCUAAGCUCAACACAGUGUGGCAAAGUAGCUGAGGCUAGACUGCA | 0.02 |
| GCCAGAGCGCAACACAGCGGGGCAAAGUGGCUGUGGCUCGCCUGCC | 0.23 |
| GUCGGAGCUCAACACAGCAUGGCAAAGUGGCUGUGGCGAGACUGUC | 0.01 |
| GCCAGAGCGCAACACAGCGUGGCAAAGCGGCUGUGGCUAGACUGCC | 0.1 |
| GCCAGAGCUCAACACAGCAUGGCAAAGUGGCUGUGGCUAUACUGCC | 0.07 |
| GCCAGAGCUCAACACAGCGGGGUAAAGUGGCUGUGGCUAGACUGCC | 0.12 |
| GUCAGGGCUCAACACAGCGUGGCAAAGUGGUUGUGGCUAGACUGCC | 0.03 |
| GCCAGAGCUCAACACAGCGUGGCAAAGUGGCAGCGGCUAGACUGCU | 0.06 |
| GUCAGUGCUCAACGCAGCGGGGCAAAGUGGCUGUGGCUAGACUGCC | 0.06 |
| GUCAGGCCUCAACAUAGCGUGGCAAAGUGGCGGUGGCUAGACUGCC | 0.01 |
| GCCAGAGCUCAACACAGCGAGGCAAGGUGGCUGAUGCUAGACUGAU | 0 |
| GCCAGAGCGCAACACAGCGUGGCAAAGUGGUUGUGGCUAGACUGCU | 0.03 |
| GCCAGAGCCCACCACAGCGUGGCAACGUGUAUGUGGCUAGACUGCC | 0.05 |

| Variant | self-cleavage |
| --- | --- |
| GUCAGUGGACAACACAGCGUGGUAAAGUGGCUGUGGCUAGACUCCU | 0.03 |
| GCCAGAGCUCAACACAUCAUGGCAACGUGGCUGUGGCUAGACUGCC | 0.36 |
| GCCAGAGCUCAACACAGCGUGGCAAAGUGGCUGUCGCUAUACUGCC | 0.32 |
| GUCGGAGCACAACAUAGCGUGGCAAACUGGCUGUGGCUAGACUGCC | 0.11 |
| GCCAGAGCUCAACACAGCGUAGCAAAGUAGCUGUGGCUAGACUGCC | 0.08 |
| GCCAGAGCUCAACACAGCCUGGCAAAGUGGGUGUGGCUAGACUGCC | 0.02 |
| GCCAGAGCUCAACACAGCGCGGACAACUGGCUGUGUCUAGACUGCC | 0.02 |
| GUCAGGUCUCAACACAGCGUGGCAAAGUGGCUGUCGCUAGACUGCC | 0.1 |
| GCCAGAGCUCAACACAGCGUGUCAAACUGGCUUGGACUAGACUGCC | 0.04 |
| GCCAGAGCUCAACACAGCGUGGCAAAGUUGCUCUGGCUAGACUGCC | 0.04 |
| GCCAGACCUCAACACAGCGUGGCAAAGUGGCUGUGGCUAGCCUACU | 0.05 |
| GCCAGAGCUCAACACAGCGUGGCAAACUGGCUGUGACUAGACUGCC | 0.22 |
| GCCAGAGCUCAACACAGCGUGGCAAACUGGCAGUGGCUAGAAUGCC | 0.01 |
| GCCAGAGCUCAACACAGCGUGGCAAAAUGGCUGUGCCUAGACUGCC | 0.2 |
| GUCAGGGUUUAACACAGCGUGGCAAAGUGGCUGUGGCUAGACUCCC | 0 |
| GCCAGAGCACAACACAGCGUGGCAAAGUGGCGGUUGCUAGACUGCC | 0.03 |
| GUCAGGGCUCAACACAGCGUCGCAAAUUGGCUGUGGCUAGACUGCC | 0.19 |
| GCCAGAGCUCAACACAGCGUGGCAAAAUGGCUGUGGCUAGACUCCC | 0.03 |
| GUCAGCGCUCAACUCAGCGUGGCAAAGUGGCUGUGGCUAGACUGCC | 0.03 |

| Variant | self-cleavage |
| --- | --- |
| GUCGGAGCUAAACACAGCGUGGCAAAGUGGCUGUAGCUAGACUGCC | 0.02 |
| GUCGGAGCUCAACACAGCGUGGCAAAGUGCCUGUGGCUAGCCUGCC | 0.09 |
| GUCGGAGCUCAACACAGCGUGGCAAAGUGGAUGUGGCUAGACUGCC | 0.01 |
| GCCAGAGCUCAACACAGCUUGGCAAAGUGGGUGUGGCUAGACUGCC | 0.07 |
| GUCGGAUCUCAGCACAGCGUGGCAAAGUGGCUGUGGCUAGAAUGCC | 0.11 |
| GUCUGAGCUCAACAUAGCGUGGCAAUGUGUCUGUGGGAAGACUGCC | 0.05 |
| GUCCGAGCUCAAUACAGCGUGGCAAAGUGGCUGUUGCUAGACUGCC | 0.05 |
| GUCCGAGCUCAACACAGAGUGGCAAAGUGGCUGUGGCUAGACUGAC | 0.02 |
| GCCAGAGCUCAACACAGCGUGGCAAAGUGGCUGUGGCAAGACUGCA | 0.04 |
| GCCAGAACUCAACACUGCGUGGCAAAGUGGCUGUGGAUAGACUCCU | 0.06 |
| GCCAGAGCUCAACACAGCGUGGCAAAGUGGCCGUGGUUAGACUGCC | 0.01 |
| GCCAGAGCUCAACACAGCGUAGCAAAGUGGCUGUGGCUAGACUGAC | 0.09 |
| GCCAGAGCACAAUACAGCGUGGCAAAGUGCCUGUGGCUAGACUGCC | 0.09 |
| GUCCGAGCUCAACACAUCGUGACAAAGUGGCUGUGGCUAGCCUGAC | 0.01 |
| GUCAGCGCUCAACACUGCGUGGCAAAGUGGCUAUGGCUAGACUGCC | 0.05 |
| GCCAGAGCUCAACACAACGUGGUAAAGUGGCUGUGACUAGACUGCC | 0.03 |
| GCCAGAGCUCAACACAGCGUGGCAAAGUGGCUUUGCAUGGACUGCC | 0.12 |
| GUCAGCGCUCAACACAGGGUGGCAAAGUCGCUGUGGCUAGACUGCC | 0.01 |

Source: the RNAGym collection of RNA variant scans (doi:10.7554/elife.90254)
